Reference: patent US20100210555A1, “USE OF A LAMININ PEPTIDE AS A THERAPEUTIC AGENT” (priority 2007, published 2010)

System: RAW 264.7 (Mouse leukaemic monocyte macrophage cell line) cells
Experiment: Phagocytosis assay
Format: cell-based
Details: 10 micrograms per ml; RAW 264.7, Fluorescein-labeled Escherichia coli; combination peptide 1:peptide 2 1.10 mole: 0.90 mole

Row | Substance | effect on the phagocytic activity of murine macrophages (increase)
1 | Cys-Ser-Arg-Ala-Arg-Lys-Gln-Ala-Ala-Ser-Ile-Lys-Val-Ala-Val-Ser-Ala-Asp-Arg-OH (CSRARKQAASIKVAVSADR-OH) [peptide 1] | 31.4%
2 | Pro-His-Pro-Phe-His-Leu-Phe-Val-Tyr-OH (PHPFHLFVY-OH) [peptide 2] | no inhibitory or activating effects

Where no end group is shown, it is not given here.
